Laboratory results reported in the supplement of paper PMC8728848.
Some of the results follow.

Tests used:
Test in all cases: glycan array binding signal (z-score within array); higher = stronger binding
Details in all cases: glycan notation: IUPAC condensed, linker removed
[1] = molecular target: Neu5Ac(a2-3)Gal(b1-4)GlcNAc6S
In short: (§1)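 The binding signal is a Z-score computed within each array and averaged over linkers. Arrays of the same protein sequence at different concentrations or buffers were also averaged together. Data originate from 3228 arrays in the Consortium for Functional Glycomics database, kept only where the protein sequence was available.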

[2] = molecular target: Neu5Ac(a2-3)Gal(b1-4)[Fuc(a1-3)]GlcNAc
In short: as §1

[3] = molecular target: Neu5Ac(a2-3)Gal(b1-4)[Fuc(a1-3)]GlcNAc(b1-3)Gal
In short: as §1

[4] = molecular target: Neu5Ac(a2-3)Gal(b1-4)[Fuc(a1-3)]GlcNAc(b1-3)Gal(b1-4)GlcNAc
In short: as §1

[5] = molecular target: Neu5Ac(a2-3)Gal(b1-4)[Fuc(a1-3)]GlcNAc(b1-3)Gal(b1-4)[Fuc(a1-3)]GlcNAc(b1-3)Gal(b1-4)[Fuc(a1-3)]GlcNAc
In short: as §1

[6] = molecular target: Neu5Ac(a2-3)Gal(b1-4)[Fuc(a1-3)]GlcNAc6S
In short: as §1

[7] = molecular target: Neu5Ac(a2-3)Gal6S(b1-4)GlcNAc
In short: as §1

[8] = molecular target: Neu5Ac(a2-3)Gal6S(b1-4)[Fuc(a1-3)]GlcNAc
In short: as §1

Neu5Ac(a2-3)GalNAc = molecular target: Neu5Ac(a2-3)GalNAc
In short: as §1

[9] = molecular target: Neu5Ac(a2-3)GalNAc(b1-4)GlcNAc
In short: as §1

[10] = molecular target: Neu5Ac(a2-3)[GalNAc(b1-4)]Gal(b1-4)Glc
In short: as §1

[11] = molecular target: Neu5Ac(a2-3)[GalNAc(b1-4)]Gal(b1-4)GlcNAc
In short: as §1

[12] = molecular target: Neu5Ac(a2-3)[Neu5Ac(a2-6)]GalNAc
In short: as §1

[13] = molecular target: Neu5Ac(a2-6)Gal(b1-4)GlcNAc
In short: as §1

[14] = molecular target: Neu5Ac(a2-6)Gal(b1-4)GlcNAc(b1-2)Man(a1-3)[Neu5Ac(a2-6)Gal(b1-4)GlcNAc(b1-2)Man(a1-6)]Man(b1-4)GlcNAc(b1-4)GlcNAc
In short: as §1

[15] = molecular target: Neu5Ac(a2-6)Gal(b1-4)GlcNAc(b1-3)Gal(b1-4)GlcNAc
In short: as §1

[16] = molecular target: Neu5Ac(a2-6)Gal(b1-4)GlcNAc(b1-3)Gal(b1-4)[Fuc(a1-3)]GlcNAc(b1-3)Gal(b1-4)[Fuc(a1-3)]GlcNAc
In short: as §1

[17] = molecular target: Neu5Ac(a2-6)Gal(b1-4)GlcNAc6S
In short: as §1

Neu5Ac(a2-6)GalNAc = molecular target: Neu5Ac(a2-6)GalNAc
In short: as §1

[18] = molecular target: Neu5Ac(a2-6)GalNAc(b1-4)GlcNAc
In short: as §1

Neu5Ac(a2-8)Neu5Ac = molecular target: Neu5Ac(a2-8)Neu5Ac
In short: as §1

[19] = molecular target: Neu5Ac(a2-8)Neu5Ac(a2-3)Gal(b1-4)Glc
In short: as §1

[20] = molecular target: Neu5Ac(a2-8)Neu5Ac(a2-3)[GalNAc(b1-4)]Gal(b1-4)Glc
In short: as §1

[21] = molecular target: Neu5Ac(a2-8)Neu5Ac(a2-8)Neu5Ac
In short: as §1

[22] = molecular target: Neu5Ac(a2-8)Neu5Ac(a2-8)Neu5Ac(a2-3)Gal(b1-4)Glc
In short: as §1

[23] = molecular target: Neu5Ac(a2-8)Neu5Ac(a2-8)Neu5Ac(a2-3)[GalNAc(b1-4)]Gal(b1-4)Glc
In short: as §1

[24] = molecular target: Neu5Ac(a2-8)Neu5Ac(a2-8)Neu5Ac(a2-8)Neu5Ac(a2-3)[GalNAc(b1-4)]Gal(b1-4)Glc
In short: as §1

[25] = molecular target: Neu5Ac9Ac(a2-6)Gal(b1-4)GlcNAc
In short: as §1

[26] = molecular target: Neu5Gc(a2-3)Gal(b1-3)GlcNAc
In short: as §1

[27] = molecular target: Neu5Gc(a2-3)Gal(b1-3)[Fuc(a1-4)]GlcNAc
In short: as §1

Neu5Gc(a2-3)Gal(b1-4)Glc = molecular target: Neu5Gc(a2-3)Gal(b1-4)Glc
In short: as §1

[28] = molecular target: Neu5Gc(a2-3)Gal(b1-4)GlcNAc
In short: as §1

[29] = molecular target: Neu5Gc(a2-3)Gal(b1-4)[Fuc(a1-4)]GlcNAc
In short: as §1

[30] = molecular target: Neu5Gc(a2-6)Gal(b1-4)GlcNAc
In short: as §1

Neu5Gc(a2-6)GalNAc = molecular target: Neu5Gc(a2-6)GalNAc
In short: as §1

B1: CVNH3T (Magnaporthe grisea) (protein)
chain: GSHIGPYGNYAGNFSGSSRDICLDGARLRAECRRGDGGYSTSVIDLNRYLSNDNGHFRWVSGGGGGGGTATVTVQQGDTLRDIGRRFDCDFHEIARRNNIQNEDLIYPGQVLQVPTKGGSGGGAGNFWDSARDVRLVDGGKVLEAELRYSGGWNRSRIYLDEHIGNRNGELIHC
glycan array binding signal (z-score) [1]: -0.224
glycan array binding signal (z-score) [2]: -0.232
glycan array binding signal (z-score) [3]: -0.217
glycan array binding signal (z-score) [4]: -0.202
glycan array binding signal (z-score) [5]: -0.233
glycan array binding signal (z-score) [6]: -0.23
glycan array binding signal (z-score) [7]: -0.23
glycan array binding signal (z-score) [8]: -0.226
glycan array binding signal (z-score) (Neu5Ac(a2-3)GalNAc): -0.225
glycan array binding signal (z-score) [9]: -0.208
glycan array binding signal (z-score) [10]: -0.234
glycan array binding signal (z-score) [11]: -0.215
glycan array binding signal (z-score) [12]: -0.233
glycan array binding signal (z-score) [13]: -0.171
glycan array binding signal (z-score) [14]: -0.213
glycan array binding signal (z-score) [15]: -0.222
glycan array binding signal (z-score) [16]: -0.232
glycan array binding signal (z-score) [17]: -0.228
glycan array binding signal (z-score) (Neu5Ac(a2-6)GalNAc): -0.209
glycan array binding signal (z-score) [18]: -0.227
glycan array binding signal (z-score) (Neu5Ac(a2-8)Neu5Ac): -0.235
glycan array binding signal (z-score) [19]: -0.23
glycan array binding signal (z-score) [20]: -0.237
glycan array binding signal (z-score) [21]: -0.237
glycan array binding signal (z-score) [22]: -0.237
glycan array binding signal (z-score) [23]: 0.944
glycan array binding signal (z-score) [24]: -0.235
glycan array binding signal (z-score) [25]: -0.223
glycan array binding signal (z-score) [26]: -0.226
glycan array binding signal (z-score) [27]: -0.175
glycan array binding signal (z-score) (Neu5Gc(a2-3)Gal(b1-4)Glc): -0.23
glycan array binding signal (z-score) [28]: -0.227
glycan array binding signal (z-score) [29]: -0.222
glycan array binding signal (z-score) [30]: -0.221
glycan array binding signal (z-score) (Neu5Gc(a2-6)GalNAc): -0.224
